Laboratory results reported in PubChem BioAssay AID504832 (National Center for Advancing Translational Sciences (NCATS), 2011).
The whole screen tested about 310,000 compounds, of which about 18,000 (5.8%) were called active. Inconclusive results, whose numbers are uncertain, are shown with a selection of clear calls. Calls come from the whole dose curve; as a rule, active = well fitted inhibition curve with a large enough effect; inconclusive = small, poorly fitted or top-dose-only effect, or another doubt; inactive = no such curve, though single readings can be large or run the other way. Potencies of inconclusive entries are left out as doubtful fits.

Test: Primary qHTS for delayed death inhibitors of the malarial parasite plastid, 48 hour incubation
Conditions: P. falciparum luciferase growth in erythrocytes; series mostly up to 28.7 µM
In short: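 In quantitative HTS format, infected erythrocytes bearing luciferase-reporter parasites were treated for a single generation at 37 C. Luminescence after adding detection reagent served as the growth measure.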
Potency is the fitted concentration of half-maximal effect; tags give direction and shape of the fitted curve.

| SMILES | Potency |
| --- | --- |
| Cc1c(OCC(=O)NCC2CCC(C(=O)O)CC2)ccc2c(-c3ccccc3)cc(=O)oc12 (centres undefined) | inconclusive [inhibitor, partial curve, poor fit] |
| CN1CCN(CC#CCn2c3ccccc3c3ccccc32)CC1 | inconclusive [inhibitor, single point] |
| Cc1cccc(C(=O)Oc2cccc3c(O)cccc23)c1 | inconclusive [inhibitor, single point] |
| CCCCCCN(C(=O)CCCCCN1C(=O)NC(c2ccc(-c3ccccc3)cc2)C(C(=O)OCc2ccccc2)=C1C)C(C(=O)NCCCC)C1CCCCC1 (centres undefined) | active: 0.828 µM |
| CC(C)(C)c1cc(N2CCOCC2)n2ncc(-c3ccc(Cl)cc3)c2n1 | inconclusive [inhibitor, single point] |
| N#CCCN/N=C(/Cc1nc2ccccc2[nH]1)c1ccc(Cl)cc1 | inconclusive [inhibitor, single point] |
| O=C(c1ccc(Cl)c(S(=O)(=O)N2CCCC2)c1)N1CCCC(C(F)(F)F)C1 (centres undefined) | inconclusive [inhibitor, single point] |
| O=C(Nn1c(O)c(C=C2N=c3ccccc3=N2)sc1=S)c1ccc(Cl)cc1 | inconclusive [inhibitor, single point] |
| O=C(CS(=O)(=O)c1ccccc1)N1CCCCCC1 | inactive |
| Clc1cccc(/C=N/Nc2ncnc3ccccc23)c1 | inactive |
| CCOC(=O)C1=C(COC(=O)/C=C/c2ccc(OC)c(OC)c2)NC(=O)NC1C (centres undefined) | inconclusive [inhibitor, single point] |
| O=C(NCc1ccccc1)c1ccc(-c2ccc(F)cc2)o1 | inactive |
| N#Cc1c(-c2ccccc2)ccn(Cc2ccccc2Cl)c1=O | inconclusive [inhibitor, single point] |
| Cc1cccc(NC(=O)CN2CCN(CC(=O)NCc3ccc(Cl)cc3Cl)CC2)c1C | inconclusive [inhibitor, single point] |
| COc1ccc(Nc2cc(C)nc3ncnn23)cc1Cl | inconclusive [inhibitor, full curve] |
| c1ccc(OCc2nc3c4c(ncn3n2)-c2ccccc2CC42CCCC2)cc1 | active: 13.1 µM |
| O=C(O)c1ccccc1NC(=O)N1CCOCC1 | inactive |
| Cc1ccc(OCC(=O)NC(=S)Nc2ccc(S(=O)(=O)Nc3cc(C)on3)cc2)c(Br)c1 | inconclusive [inhibitor, single point] |
| CCSc1nc(-c2ccccc2)c(-c2ccccc2)n1CC(O)CO (centres undefined) | inconclusive [inhibitor, partial curve, poor fit] |
| CC1CCN(C(=O)C(NS(=O)(=O)c2cccc3nsnc23)c2ccccc2)CC1 (centres undefined) | inconclusive [inhibitor, full curve, poor fit] |
| Oc1nc(Nc2ccc(F)cc2)sc1/C=C1\C=Nc2ccccc21 | active: 13.1 µM |
| CCCCn1c(-c2ccccc2C)nc2cc3[nH]c(=O)c(C(C)C)nc3cc21 | inconclusive [inhibitor, partial curve, poor fit] |

| SMILES | Potency |
| --- | --- |
| CCC1(CC)NC(=O)N(CC(=O)N2N=C(c3ccc(Cl)cc3)CC2c2ccco2)C1=O (centres undefined) | inconclusive [inhibitor, single point] |
| CC(C)C[C@H](NC(=O)N1CCn2c1nc1ccccc12)C(=O)N[C@@H](C(=O)O)c1ccccc1 | inactive |
| c1ccc(SCc2nc(-c3ccccn3)no2)cc1 | inactive |
| O=C(Nc1ccn(Cc2ccc(Cl)cc2)n1)c1ccccc1 | inactive |
| CN(CCc1nc2ccccc2[nH]1)Cc1nc(CC2CC2)no1 | inactive |
| O=C(CCl)Nc1cccc(S(=O)(=O)N2CCCCCC2)c1 | active: 6.57 µM |
| O=C(Nc1cc(C(F)(F)F)ccc1N1CCOCC1)c1cnccn1 | inconclusive [inhibitor, single point] |
| CCCCn1c(N)c(N(CC(C)C)C(=O)C2CC(=O)N(c3ccc(C)cc3)C2)c(=O)[nH]c1=O (centres undefined) | inconclusive [inhibitor, single point] |
| COc1ccccc1NC(=S)N1CCn2cccc2C1c1cccnc1 (centres undefined) | inconclusive [inhibitor, single point] |
| Cc1ccccc1Cn1c(CN2CCN(C(=O)c3ccco3)CC2)nc2c1c(=O)n(C)c(=O)n2C | inconclusive [inhibitor, partial curve] |
| Cc1ccc(OC(C)C(=O)Nc2ccncc2)cc1 (centres undefined) | inactive |
| COc1ccc(C(=O)/C=C/c2ccc(OC3CSC3)cc2)cc1 | inactive |
| CC(CCCCCCCCC(=O)O)N(CCO)C(=O)OC(C)(C)C (centres undefined) | inconclusive [inhibitor, partial curve, poor fit] |
| CC(NC(=S)Nc1ccccc1C(F)(F)F)C1CC2CCC1C2 (centres undefined) | inconclusive [inhibitor, partial curve, poor fit] |
| O=c1c2c3c(sc2n2cnnc2n1-c1ccccc1)N(Cc1ccccc1)CCC3 | inconclusive [inhibitor, single point] |
| O=C(COC(=O)c1c(Cl)cccc1Cl)Nc1cc(Cl)ccc1Oc1ccccc1 | active: 13.1 µM |
| Cc1cc(C)nc(/N=C(\N)Nc2ccc(-c3ccccc3)cc2)n1 | inconclusive [inhibitor, single point] |
| CN(C)c1ccc(/C=N/NC(=O)CN2CCCCC2)cc1Br | inactive |
| CCN(CC(=O)Nc1ccccc1C(F)(F)F)C(=O)c1cc(S(=O)(=O)N(C)C)ccc1N1CCCC1 | inconclusive [inhibitor, partial curve, poor fit] |
| CCOC(=O)c1c(C)n(-c2ccc(C)cc2)c2c(C(C(C)=O)C(=O)O)c(Br)c(O)c(O)c12 (centres undefined) | inconclusive [inhibitor, single point] |
| CC1=CC2=NC(=O)/C(=C\c3cccn3CCOc3ccccc3C)C(=N)N2O1 | inconclusive [inhibitor, single point] |
| CCNC(=S)N1CCC(C(=O)c2ccc(Cl)cc2)CC1 | inactive |
